Experimental findings from the supplement of paper PMC4723716 are described below.

The assay concerns Plasmodium falciparum NF54 stage V gametocytes. Kind of assay: viability index relative to DMSO control (fraction); higher = less gametocyte killing. Conditions: 2.5 µM, library set: Broad Institute DOS, incubation time: 72 h. The procedure, abridged: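 Gametocytes (P. falciparum NF54, stage V) were treated with compound at 2.5 µM for 72 hr at 37°C in low oxygen, in serum-free medium at 0.75% gametocytemia and 1.25% hematocrit. Counts of 20–70 µm2 red particles, taken from one field per well after MitoTracker Red CMXRos with saponin, were divided by the plate mean of solvent-only wells. This ratio is the viability index.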

The structures appear in SMILES notation. ± gives the uncertainty stated by the source. Whole data set: some 9,900 compounds, median “viability index relative to DMSO control” near 1, cut for the lowest 2% near 0.85. The list shows a part of the results.

The compound `Cc1ccccc1-c1ccc([C@H]2[C@H]3CNC[C@@H]2N3Cc2ccccn2)cc1` gave a viability index of 1.07 ± 0.084.

In turn, `O=C(C[C@H]1CC[C@H]2[C@@H](COC[C@H](O)CN2Cc2ccc3c(c2)OCO3)O1)N1CCCCC1` returned a viability index of 1.03 ± 0.1. In the case of `COCC#Cc1ccc([C@@H]2[C@@H](CO)N3CCCCN(C(=O)NC4CCCC4)C[C@@H]23)cc1`, the viability index was 1.01 ± 0.02. Turning to `CCC(=O)N1C[C@H](O)COC[C@@H]2O[C@@H](CC(=O)NC)CC[C@H]21`, the viability index was determined as 1.02 ± 0.08.

Compound `COCC(=O)N1CC[C@@]2(CC1)CN(Cc1ccccc1Cl)[C@@H](CO)c1[nH]c3cc(OC)ccc3c21` came in with a viability index of 1.049 ± 0.0075. On to `O=C(C[C@@H]1C=C[C@H](NS(=O)(=O)c2ccc(F)cc2)[C@H](CO)O1)N1CCc2ccccc2C1`, for which the viability index was 1.06 ± 0.12. As to `Cc1noc(C)c1NC(=O)N(C)C[C@@H]1OCc2cn(nn2)CCCC(=O)N([C@@H](C)CO)C[C@@H]1C`, the viability index amounted to 1.02 ± 0.033. In turn, `N#C[C@H]1[C@H](c2ccccc2C2=CCCCC2)[C@H](CO)N1C(=O)c1ccccn1` displayed a viability index of 1.04 ± 0.15. Next, `COc1cccc(-c2ccc([C@H]3[C@H]4CNC[C@@H]3N4C(=O)Nc3ccc4c(c3)OCO4)cc2)c1`: 1.1 ± 0.085. Consider `COc1ccc(S(=O)(=O)N(C)C[C@@H]2Oc3c(NC(=O)c4nc5ccccc5s4)cccc3C(=O)N([C@@H](C)CO)C[C@@H]2C)cc1`, for which the viability index stood at 1.06 ± 0.12. In the case of `CN1[C@@H]2c3ccc(-c4ccc(F)cc4)c(=O)n3C[C@@H]2[C@@H](CO)[C@@H]1C(=O)NCc1ccccn1`, the viability index was 1.042 ± 0.0075. For `CCCNC(=O)N[C@@H]1C=C[C@@H](CC(=O)N2CCN(C)CC2)O[C@@H]1CO`, the viability index worked out at 1.11 ± 0.056. For the compound `O=C(N[C@@H]1CC[C@@H](CCNS(=O)(=O)c2ccc(F)cc2)O[C@@H]1CO)C1CCC1`, the viability index was determined as 1.01 ± 0.18. The compound `CO[C@H]1CN(C)C(=O)c2cc(NC(=O)NC3CCCCC3)ccc2OC[C@H](C)N(CC2CCOCC2)C[C@H]1C` displayed a viability index of 1.03 ± 0.052. Under `CO[C@@H](CN(C)C(=O)c1cc(Cl)cc(Cl)c1)[C@@H](C)CN(C(=O)Nc1ccc(F)cc1)[C@H](C)CO` stands 1.1 ± 0.09; under `CO[C@@H](C(=O)N(C)C[C@H]1OCc2ccccc2-c2ccccc2C(=O)N([C@@H](C)CO)C[C@H]1C)c1ccccc1`, 1.02 ± 0.015. The compound `CO[C@@H](C(=O)N(C)C[C@H]1OCc2ccccc2-c2ccccc2C(=O)N([C@@H](C)CO)C[C@@H]1C)c1ccccc1` returned a viability index of 1.01 ± 0.016. With `COc1ccc(NC(=O)Nc2cccc3c2O[C@@H](CN(C)Cc2ccc(C(=O)O)cc2)[C@@H](C)CN([C@H](C)CO)C3=O)cc1`, the viability index is 0.926 ± 0.066. Next, `C[C@@H]1CN([C@H](C)CO)C(=O)c2ccccc2-c2ccccc2CO[C@H]1CN(C)S(=O)(=O)c1ccc([N+](=O)[O-])cc1`: 0.938 ± 0.084; `O=C(Nc1ccc(F)cc1)N1[C@@H]2CNC[C@H]1[C@H]2c1ccc(-c2cccnc2)cc1`: 0.996 ± 0.053; `Cc1cccc(S(=O)(=O)N[C@H]2CC[C@H](CCNC(=O)Nc3cc(F)ccc3F)O[C@H]2CO)c1`: 1.04 ± 0.13. On to `C[C@@H]1CCCCO[C@H](CN(C)Cc2ccc(C(F)(F)F)cc2)[C@@H](C)CN([C@@H](C)CO)C(=O)c2cc(NC(=O)Nc3cccc4ccccc34)ccc2O1`, for which the viability index amounted to 1.11 ± 0.027. Compound `O=C(Nc1ccccc1Cl)N1C[C@H]2[C@@H](c3ccccc31)[C@H](CO)N2C(=O)c1cccnc1` showed a viability index of 1.04 ± 0.017. Compound `COc1ccc2c3c([C@@H](CO)N(C[C@]33CN(C3)C(=O)Cc3ccccc3)C(=O)c3ccccn3)n(C)c2c1` registered a viability index of 0.892 ± 0.075. Under `C/C=C/c1ccc([C@H]2[C@H](CO)N(C(C)=O)[C@H]2CNC(=O)c2ccccc2)cc1` stands 1.1 ± 0.051; under `COC(=O)C[C@H]1CC[C@@H]2[C@@H](COc3ccc(NC(=O)Nc4cccc(C#N)c4)cc3C(=O)N2C)O1`, 1.16 ± 0.11; under `C[C@@H]1CCCCO[C@H](CN(C)Cc2ccncc2)[C@H](C)CN([C@@H](C)CO)C(=O)c2cc(NC(=O)Cc3ccccc3)ccc2O1`, 1.04 ± 0.024. As for `O=C(NCc1ccccc1)[C@@H]1[C@@H](CO)[C@@H]2Cn3c(cccc3=O)[C@H]1N2C(=O)Cc1ccccn1`, the viability index came to 1.018 ± 0.0078. In turn, `COCC(=O)N1C[C@]2(CN(C2)S(C)(=O)=O)c2c([C@@H]1CO)n(C)c1cc(OC)ccc21` showed a viability index of 0.993 ± 0.14. `OC[C@@H]1[C@@H](c2ccccc2)C2(CN(CC3CCOCC3)C2)N1Cc1cncnc1` gave a viability index of 1.08 ± 0.056.

On to `CC(=O)N1CCCCN2[C@H](C1)[C@H](c1ccc(-c3ccccc3)cc1)[C@@H]2CO`, for which the viability index came to 0.993 ± 0.083. Compound `OC[C@@H]1[C@H](c2ccc(-c3cccnc3)cc2)[C@@H]2CN(Cc3ccccn3)CCCCN12` returned a viability index of 1.04 ± 0.06. For `O=C(C[C@H]1CC[C@@H]2[C@H](COC[C@@H](O)CN2Cc2ccc(F)cc2)O1)NCCc1ccccc1`, the viability index worked out at 1.058 ± 0.0038. Next, `C[C@H]1CN([C@@H](C)CO)C(=O)CCCn2nncc2CO[C@H]1CN(C)C(=O)Nc1ccccc1C(F)(F)F`: 1 ± 0.048; `CC(C)CC#Cc1ccc([C@@H]2[C@H](CO)N3C(=O)CN(S(=O)(=O)c4cccc(F)c4)C[C@@H]23)cc1`: 1 ± 0.054; `CN1C(=O)c2cc(NC(=O)c3cnccn3)ccc2OC[C@@H]2O[C@H](CC(=O)N[C@H]3CCN(Cc4ccccc4)C3)CC[C@@H]21`: 0.913 ± 0.14.
